In patent US10172829B2 (priority 2014, dated 2019):

System: C. difficile strain 630

Structure (SMILES): O=c1c2ccccc2[se]n1-c1ccccc1 [Ebselen, 2-phenyl-1,2-benzoselenazol-3-one]
- overall pathology, histology analysis of the colon (ebselen vs vehicle treated infected mice): significant improvement in overall pathology
- growth inhibitory or killing effect on C. difficile (CFUs per ml of feces) (mouse, in vivo): No growth inhibitory or killing effect
- mean of differences of overall histopathological scores, ebselen vs vehicle (mouse, in vivo): 2.3
- overall histopathological score (cell infiltration, submucosal edema, mucosal hypertrophy) (mouse, in vivo, po, 100 mg/kg): 1.43±0.2
